Source: the supplement of paper PMC7826260
Some of the results follow. Viral Rep nickase domains cut single-stranded DNA in vitro for 1 h at 37 °C with 3 µM enzyme; only the middle of the 90-letter strands is printed. A value is the log2 ratio of uncut reads to the pool without enzyme; the lower, the more was cut; hits are not called. Because reads are shares of a total, they shift together; uncut strands gain when others are lost, and binding without cutting may add a little.

These sequences were tested on T1, Rep nickase domain of tomato golden mosaic virus (assay: uncleaved DNA left, log2 of reads against the no-enzyme library (log2 ratio); higher = less cleavage (more negative = more Rep cleavage of the k-mer); sequences stand for … in CTCGTCCG…ACCGGAGA).
T1 sequence (Rep 1-124, printed without the tag): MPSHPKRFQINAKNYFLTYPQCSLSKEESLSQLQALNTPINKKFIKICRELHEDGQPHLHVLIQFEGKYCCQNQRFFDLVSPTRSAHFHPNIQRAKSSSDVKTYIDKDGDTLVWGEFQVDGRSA
Description: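 A pool of 90-nt single-stranded DNAs with seven random bases just before the constant AC of the nick site (name = the seven bases) was cut by 3 µM recombinant His6-SUMO-tagged Rep nickase domain (300 nM DNA, 50 mM HEPES pH 8.0, 50 mM NaCl, 1 mM MnCl2, 1 h, 37 °C, three replicates). Uncut DNA was amplified and sequenced.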

| Sequence | uncleaved DNA left (log2) |
| --- | --- |
| CCGGCCA | 0.108 |
| TCTTCAT | -0.0732 |
| TCGCGTT | -0.27 |
| ACGTGCT | 0.0368 |
| CCTTCGA | -0.119 |
| CACTTCA | -0.0563 |
| AACCACT | -0.0428 |
| TCACTGC | -0.0536 |
| ATTAACA | 0.0596 |
| TGGATAC | -0.0285 |
| TCGCATT | -0.03 |
| TTCTTCC | -0.164 |
| GATGCCC | -0.111 |
| CTATGGG | 0.139 |
| GAGTCTA | 0.0489 |
| TGTCTTA | 0.0313 |
| AGTTGTG | 0.0162 |
| TTGTGAG | -0.163 |
| CCCAAGC | 0.00667 |
| GAACGAA | 0.314 |

| Sequence | uncleaved DNA left (log2) |
| --- | --- |
| TTTGAGA | 0.00483 |
| GCCTCAT | -0.147 |
| TCGCAGG | -0.000436 |
| CCTTTCG | -0.123 |
| TAATACT | -4.85 |
| AAACTAC | 0.137 |
| ACGACCC | 0.112 |
| AGAATGA | 0.102 |
| GAGGGGC | 0.0341 |
| GCGACCG | 0.0558 |
| GATTGCG | -0.167 |
| CCCTGCC | -0.12 |
| TACACGT | -0.119 |
| TTGATAT | -0.0427 |
| CCGACTG | -0.0977 |
| TGAGATG | 0.114 |
| GCGGGGC | 0.116 |
| TACTCGA | -0.0232 |
| TCATCGC | -0.208 |
| AGGGAGG | 0.0231 |
